Some of the results follow.
Tests used:
Assay in all cases: glycan array binding signal (z-score within array); higher = stronger binding
Details in all cases: glycan notation: IUPAC condensed, linker removed
[1] = molecular target: Gal3S(b1-3)[Fuc(a1-4)]GlcNAc
Method in brief: (§1)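 The binding signal is a Z-score computed within each array and averaged over linkers. Arrays of the same protein sequence at different concentrations or buffers were also averaged together. Data originate from 3228 arrays in the Consortium for Functional Glycomics database, kept only where the protein sequence was available.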

Gal3S(b1-4)Glc = molecular target: Gal3S(b1-4)Glc
Method in brief: as §1

Gal3S(b1-4)Glc6S = molecular target: Gal3S(b1-4)Glc6S
Method in brief: as §1

Gal3S(b1-4)GlcNAc = molecular target: Gal3S(b1-4)GlcNAc
Method in brief: as §1

[2] = molecular target: Gal3S(b1-4)[Fuc(a1-3)]Glc6S
Method in brief: as §1

[3] = molecular target: Gal3S(b1-4)[Fuc(a1-3)]GlcNAc
Method in brief: as §1

[4] = molecular target: Gal3S(b1-4)[Fuc(a1-3)]GlcNAc6S
Method in brief: as §1

Gal3S4S(b1-4)GlcNAc = molecular target: Gal3S4S(b1-4)GlcNAc
Method in brief: as §1

Gal3S6S(b1-4)GlcNAc = molecular target: Gal3S6S(b1-4)GlcNAc
Method in brief: as §1

Gal3S6S(b1-4)GlcNAc6S = molecular target: Gal3S6S(b1-4)GlcNAc6S
Method in brief: as §1

Gal4S(b1-4)GlcNAc = molecular target: Gal4S(b1-4)GlcNAc
Method in brief: as §1

Gal4S6S(b1-4)GlcNAc = molecular target: Gal4S6S(b1-4)GlcNAc
Method in brief: as §1

Gal6P(b1-4)GlcNAc = molecular target: Gal6P(b1-4)GlcNAc
Method in brief: as §1

Gal6S(b1-3)GlcNAc = molecular target: Gal6S(b1-3)GlcNAc
Method in brief: as §1

Gal6S(b1-3)GlcNAc6S = molecular target: Gal6S(b1-3)GlcNAc6S
Method in brief: as §1

Gal6S(b1-4)Glc = molecular target: Gal6S(b1-4)Glc
Method in brief: as §1

Gal6S(b1-4)Glc6S = molecular target: Gal6S(b1-4)Glc6S
Method in brief: as §1

Gal6S(b1-4)GlcNAc = molecular target: Gal6S(b1-4)GlcNAc
Method in brief: as §1

Gal6S(b1-4)GlcNAc6S = molecular target: Gal6S(b1-4)GlcNAc6S
Method in brief: as §1

GalNAc(a1-3)Gal = molecular target: GalNAc(a1-3)Gal
Method in brief: as §1

GalNAc(a1-3)GalNAc = molecular target: GalNAc(a1-3)GalNAc
Method in brief: as §1

[5] = molecular target: GalNAc(a1-3)GalNAc(b1-3)Gal(a1-4)Gal(b1-4)Glc
Method in brief: as §1

[6] = molecular target: GalNAc(a1-3)GalNAc(b1-3)Gal(a1-4)Gal(b1-4)GlcNAc
Method in brief: as §1

GalNAc(b1-3)Gal = molecular target: GalNAc(b1-3)Gal
Method in brief: as §1

[7] = molecular target: GalNAc(b1-3)Gal(a1-4)Gal(b1-4)GlcNAc
Method in brief: as §1

[8] = molecular target: GalNAc(b1-3)Gal(a1-4)Gal(b1-4)GlcNAc(b1-3)Gal(b1-4)Glc
Method in brief: as §1

[9] = molecular target: GalNAc(b1-3)Gal(a1-6)Gal(b1-4)Glc
Method in brief: as §1

GalNAc(b1-3)GalNAc = molecular target: GalNAc(b1-3)GalNAc
Method in brief: as §1

GalNAc(b1-3)GlcNAc = molecular target: GalNAc(b1-3)GlcNAc
Method in brief: as §1

GalNAc(b1-4)Gal(b1-4)Glc = molecular target: GalNAc(b1-4)Gal(b1-4)Glc
Method in brief: as §1

GalNAc(b1-4)GlcNAc = molecular target: GalNAc(b1-4)GlcNAc
Method in brief: as §1

[10] = molecular target: GalNAc(b1-4)GlcNAc(b1-2)Man
Method in brief: as §1

[11] = molecular target: GalNAc(b1-4)GlcNAc(b1-2)Man(a1-3)[GalNAc(b1-4)GlcNAc(b1-2)Man(a1-6)]Man(b1-4)GlcNAc(b1-4)GlcNAc
Method in brief: as §1

[12] = molecular target: GalNAc(b1-4)GlcNAc(b1-3)GalNAc(b1-4)GlcNAc
Method in brief: as §1

GalNAc(b1-4)GlcNAc6S = molecular target: GalNAc(b1-4)GlcNAc6S
Method in brief: as §1

GalNAc(b1-6)GalNAc = molecular target: GalNAc(b1-6)GalNAc
Method in brief: as §1

GalNAc3S(b1-4)GlcNAc = molecular target: GalNAc3S(b1-4)GlcNAc
Method in brief: as §1

GalNAc3S(b1-4)GlcNAc3S = molecular target: GalNAc3S(b1-4)GlcNAc3S
Method in brief: as §1

[13] = molecular target: GalNAc3S(b1-4)[Fuc(a1-3)]GlcNAc
Method in brief: as §1

GalNAc4S6S(b1-4)GlcNAc = molecular target: GalNAc4S6S(b1-4)GlcNAc
Method in brief: as §1

GalNAc6S(b1-4)GlcNAc = molecular target: GalNAc6S(b1-4)GlcNAc
Method in brief: as §1

Glc(a1-4)Glc = molecular target: Glc(a1-4)Glc
Method in brief: as §1

[14] = molecular target: Glc(a1-4)Glc(a1-4)Glc(a1-4)Glc
Method in brief: as §1

Glc(a1-6)Glc(a1-6)Glc = molecular target: Glc(a1-6)Glc(a1-6)Glc
Method in brief: as §1

[15] = molecular target: Glc(a1-6)Glc(a1-6)Glc(a1-6)Glc
Method in brief: as §1

B1: MpAFP NterminalRI GFP (Marinomonas primoryensis) (protein)
chain: MSDNQFPFATLGNAIGFITKLDGSVTVQSIDGQERVLKLGDPIFFGETVLTGGSGSVTIAFVDGTDVVIGGDSIVEMTDEIYNTGDNEDLVADSSSEIDALQNAILAGDDPTLIQDAPAAGNTLADQQRVDVSIERNDNSAQAGFGVDTQSSLPTYGYDTDNGNGGQATEREYSAPSLSRTLNQSPLLEHHHHHH
glycan array binding signal (z-score) [1]: 0.018 | glycan array binding signal (z-score) (Gal3S(b1-4)Glc): 1.98 | glycan array binding signal (z-score) (Gal3S(b1-4)Glc6S): -0.434 | glycan array binding signal (z-score) (Gal3S(b1-4)GlcNAc): -0.253 | glycan array binding signal (z-score) [2]: 0.632 | glycan array binding signal (z-score) [3]: 1.76 | glycan array binding signal (z-score) [4]: 0.363 | glycan array binding signal (z-score) (Gal3S4S(b1-4)GlcNAc): -0.542 | glycan array binding signal (z-score) (Gal3S6S(b1-4)GlcNAc): -0.517 | glycan array binding signal (z-score) (Gal3S6S(b1-4)GlcNAc6S): -0.33 | glycan array binding signal (z-score) (Gal4S(b1-4)GlcNAc): -0.891 | glycan array binding signal (z-score) (Gal4S6S(b1-4)GlcNAc): -0.541 | glycan array binding signal (z-score) (Gal6P(b1-4)GlcNAc): 0.296 | glycan array binding signal (z-score) (Gal6S(b1-3)GlcNAc): -0.541 | glycan array binding signal (z-score) (Gal6S(b1-3)GlcNAc6S): 0.337 | glycan array binding signal (z-score) (Gal6S(b1-4)Glc): 0.469 | glycan array binding signal (z-score) (Gal6S(b1-4)Glc6S): -0.417 | glycan array binding signal (z-score) (Gal6S(b1-4)GlcNAc): -0.561 | glycan array binding signal (z-score) (Gal6S(b1-4)GlcNAc6S): -0.595 | glycan array binding signal (z-score) (GalNAc(a1-3)Gal): -0.512 | glycan array binding signal (z-score) (GalNAc(a1-3)GalNAc): -0.539 | glycan array binding signal (z-score) [5]: -0.512 | glycan array binding signal (z-score) [6]: -0.421 | glycan array binding signal (z-score) (GalNAc(b1-3)Gal): -0.498 | glycan array binding signal (z-score) [7]: 1.23 | glycan array binding signal (z-score) [8]: -0.509 | glycan array binding signal (z-score) [9]: -0.492 | glycan array binding signal (z-score) (GalNAc(b1-3)GalNAc): -0.576 | glycan array binding signal (z-score) (GalNAc(b1-3)GlcNAc): -0.452 | glycan array binding signal (z-score) (GalNAc(b1-4)Gal(b1-4)Glc): 0.425 | glycan array binding signal (z-score) (GalNAc(b1-4)GlcNAc): -0.159 | glycan array binding signal (z-score) [10]: -0.503 | glycan array binding signal (z-score) [11]: 0.093 | glycan array binding signal (z-score) [12]: 0.909 | glycan array binding signal (z-score) (GalNAc(b1-4)GlcNAc6S): -0.611 | glycan array binding signal (z-score) (GalNAc(b1-6)GalNAc): -0.472 | glycan array binding signal (z-score) (GalNAc3S(b1-4)GlcNAc): -0.554 | glycan array binding signal (z-score) (GalNAc3S(b1-4)GlcNAc3S): -0.391 | glycan array binding signal (z-score) [13]: -0.39 | glycan array binding signal (z-score) (GalNAc4S6S(b1-4)GlcNAc): -0.507 | glycan array binding signal (z-score) (GalNAc6S(b1-4)GlcNAc): -0.557 | glycan array binding signal (z-score) (Glc(a1-4)Glc): 0.959 | glycan array binding signal (z-score) [14]: -0.3 | glycan array binding signal (z-score) (Glc(a1-6)Glc(a1-6)Glc): -0.345 | glycan array binding signal (z-score) [15]: -0.16

Source: the supplement of paper PMC8728848
